Source: PubChem BioAssay AID504832 (National Center for Advancing Translational Sciences (NCATS), 2011)
In all, about 310,000 compounds went through this assay and about 18,000 (5.8%) were called active. This list was built around the results that the source calls inconclusive (neither active nor inactive); the mix of calls is not that of the screen. Calls follow the shape of the dose curve; as a rule, active = well fitted inhibition curve with a large enough effect; inconclusive = small, poorly fitted or top-dose-only effect, or another doubt; inactive = no such curve, though single readings can be large or run the other way. No potency is given beside an inconclusive call; the fits are too rough.

Test: Primary qHTS for delayed death inhibitors of the malarial parasite plastid, 48 hour incubation
Settings: P. falciparum luciferase growth in erythrocytes; series mostly up to 28.7 µM; activity change, negative = inhibition: at the top concentration
Method in brief: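 Luciferase-expressing P. falciparum in infected erythrocytes (2% hematocrit, 0.1% parasitemia final) in RPMI 1640/0.5% Albumax were exposed to compound for 48 hours at 37 C, 5% CO2; growth read as luminescence.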
% is scaled to controls: 0 for no effect and ±100 for the full control effect; potency is read from the fitted curve at half-maximal effect; tags tell the direction and shape of the fitted curve.

| Compound | activity change, negative = inhibition | Potency |
| --- | --- | --- |
| CCOC(=O)c1c(C)nc2cc(C)cc(C)n12 | inactive: 22.8% | – |
| N/C(=N\OC(=O)c1ccc(OCC(F)(F)F)nc1)c1ccc(Cl)cc1 | inactive: -36.7% | – |
| COc1cc(SC)ccc1C(=O)NCCOc1ccc(Cl)cc1 | – | inconclusive [inhibitor, single point] |
| CCCCNC(=O)c1cc2c(=O)n3cccc(C)c3nc2n(Cc2ccncc2)c1=N | – | active: 5.22 µM |
| Oc1ccc(-c2csc(Nc3ncccn3)n2)cc1O | inactive: 9.35% | – |
| COc1ccccc1NC(=O)N(c1c(N)n(Cc2ccccc2)c(=O)[nH]c1=O)C1CCCC1 | – | inconclusive [inhibitor, single point] |
| Cc1ccccc1Nc1c(-c2cccnc2)nc2ccc(Br)cn12 | – | inconclusive [inhibitor, single point] |
| Cc1cc(C(=O)Nc2ccc(N3CCOCC3)cc2)c2ccccc2n1 | – | active: 9.28 µM |
| Cc1ccc(F)cc1NC(=O)C1C2CCC(O2)C1C(=O)O (centres undefined) | – | inconclusive [inhibitor, full curve, poor fit] |
| CCOc1ccccc1NC(=O)c1ccoc1C | inactive: -8.39% | – |
| COC(=O)c1[nH]c2cccc(C)c2c1NC(=O)CN1CCCc2ccccc21 | – | inconclusive [inhibitor, single point] |
| CN1CCN(CC(=O)Nc2ccc(Oc3ccccc3)cc2)CC1 | – | inconclusive [inhibitor, partial curve, poor fit] |
| O=C(c1ccc(S(=O)(=O)N2CCCCC2)cc1)N1CCN(CCN2C(=O)c3cccc4cccc(c34)C2=O)CC1 | – | inconclusive [inhibitor, partial curve, poor fit] |
| COc1cccc(NC(=O)N[C@@H](Cc2ccccc2)C(=O)O)c1 | – | inconclusive [inhibitor, single point] |
| CCOc1ccc(NC(=O)CN(C)C(=O)c2ccc3nc(CC)c(CC)nc3c2)cc1OCC | – | inconclusive [inhibitor, partial curve, poor fit] |
| Cc1ccccc1NC(=O)Cc1nnc(SCc2ccc(Cl)c(Cl)c2)n1C | – | inconclusive [inhibitor, single point] |
| CCN1C(=O)[C@H]2[C@@H](c3ccc(-c4ccc(Cl)c(Cl)c4)c(OC)c3)N[C@@](C)(C(=O)OC)[C@H]2C1=O | – | active: 2.08 µM |
| CC(=O)C1=C(C)NC(SCC(=O)c2ccc(Cl)cc2Cl)=C(C#N)C1c1ccco1 (centres undefined) | – | inconclusive [inhibitor, single point] |
| CCc1ccc(Nc2n[n+](-c3ccccc3)c(-c3cccc(Cl)c3Cl)s2)cc1 | – | active: 4.15 µM |
| O=C(CCN1C(=O)C2CC=CCC2C1=O)Nc1ccccc1Cl (centres undefined) | inactive: 5.21% | – |
| CN(Cc1ccccc1)c1nc2c(c(=O)[nH]c(=O)n2C)n1C | inactive: 0.22% | – |
| CCCCn1c(N)c(N(CCOC)C(=O)c2ccco2)c(=O)[nH]c1=O | – | inconclusive [inhibitor, partial curve, poor fit] |
| CC(C(=O)N1CCc2ccccc21)N1CCc2ccccc2C1 (centres undefined) | – | inconclusive [inhibitor, full curve, poor fit] |
| CN1N=C2c3ccccc3CCC2C1c1ccc(F)cc1 (centres undefined) | – | active: 1.31 µM |
| O=C(N/N=C/c1ccc[nH]1)c1ccc(O)cc1 | inactive: 66.6% | – |

| Compound | activity change, negative = inhibition | Potency |
| --- | --- | --- |
| CC(=O)c1ccc(NS(=O)(=O)c2cc(-c3cnc(C4CC4)o3)ccc2C)cc1 | – | inconclusive [inhibitor, single point] |
| COc1ccnc(CSC(N)=Nc2cccc(C(F)(F)F)c2)c1 | – | inconclusive [inhibitor, single point] |
| Cn1c(=O)c(C(=O)CSc2nnc(Nc3ccccc3)s2)c(N)n(Cc2ccccc2)c1=O | – | inconclusive [inhibitor, partial curve] |
| O=C(/C=C/c1ccc(S(=O)(=O)N2CCOCC2)cc1)NCCc1ccc(C(F)(F)F)cc1 | – | active: 11.7 µM |
| CCN1CCN(c2ccc(NC(=O)COc3ccccc3Cl)cc2)CC1 | – | inconclusive [inhibitor, single point] |
| CCCN(CCC)C(=O)CSc1nc2ccsc2c(=O)n1NC(=O)c1ccccc1 | inactive: 76.9% | – |
| CCn1c(SCc2nc3ccccc3s2)nnc1-c1cccs1 | inactive: -18.4% | – |
| Cc1nc(NC(=O)CC(C)C)sc1-c1csc(Nc2ccc(Cl)cc2)n1 | – | active: 10.4 µM |
| CC(=NCCC1=CCCCC1)c1c(O)n(-c2ccccc2)c(=O)[nH]c1=O | – | inconclusive [inhibitor, single point] |
| CC1CCCN(CCCNC(=O)C2CCCN(c3ncnc4c3nc3n4CCCCC3)C2)C1 (centres undefined) | – | inconclusive [inhibitor, partial curve] |
| COc1ccc(/C=C2/S/C(=N/S(=O)(=O)Cc3ccccc3)NC2=O)cc1OC | – | inconclusive [inhibitor, single point] |
| COC(=O)c1ccc(COC(=O)c2ccc(SC)cc2OC)cc1 | inactive: 49.4% | – |
| c1ccc(Oc2nnc(-c3cccs3)c3ccccc23)cc1 | inactive: 4.25% | – |
| O=C(NCC1CCCO1)C1CCCN1C(=O)Nc1ccc(Cl)c(Cl)c1 (centres undefined) | – | inconclusive [inhibitor, single point] |
| Cc1c(/C=C/C(=O)c2ccc(O)cc2)cnn1C | inactive: 160% | – |
| COC(=O)c1ccc(NC(=O)COc2coc(CN3CCc4ccccc43)cc2=O)cc1 | – | inconclusive [inhibitor, partial curve, poor fit] |
| CC1=NNC(=O)C1CC(=O)N/N=C(\C)c1cccs1 (centres undefined) | inactive: 64.9% | – |
| COc1ccccc1CNC(=O)COc1ccc(S(=O)(=O)N2CCOCC2)cc1C | inactive: 0% | – |
| CCC1S/C(=N/N=C/c2ccco2)N(c2ccc(F)cc2)C1=O (centres undefined) | inactive: -4.23% | – |
| CCOC(=O)N1CCN(C(=O)CCSc2ccc(Cl)cc2)CC1 | inactive: 25.9% | – |
| Cc1ccc(Cn2c(=O)n(-c3ccccc3)c(=O)c3ccc(C(=O)NCc4ccco4)cc32)cc1 | – | inconclusive [inhibitor, single point] |
| Nc1ccccc1Oc1c(F)c(F)c(Oc2ccccc2N)c(F)c1F | – | inconclusive [inhibitor, single point] |
| O=C(ONC1=NCCCCC1)c1ccc(Cl)cc1 | – | inconclusive [inhibitor, single point] |
| COc1ccccc1C(=O)Nc1c(C(=O)N(CCN(C)C)Cc2ccco2)oc2ccccc12 | – | inconclusive [inhibitor, partial curve, poor fit] |
| CCOC(=O)N1CCC(NC(=O)c2cc3c(=O)n(C)c4ccccc4c3n2C)CC1 | – | inconclusive [inhibitor, single point] |

| Compound | activity change, negative = inhibition | Potency |
| --- | --- | --- |
| S=c1[nH]c2ccccc2n1CCOc1ccccc1 | – | inconclusive [inhibitor, single point] |
| Cc1noc(C)c1CSCC(=O)N(C)CC(=O)Nc1cccc(F)c1 | inactive: -2.78% | – |
| N#C/C(=C/Nc1ccccc1C(=O)O)C(N)=O | – | inconclusive [inhibitor, partial curve] |
| Cc1onc(-c2c(F)cccc2Cl)c1C(=O)c1ccccc1O | – | inconclusive [inhibitor, single point] |
| COc1ccc(Cl)cc1NC(=O)c1ccco1 | inactive: 7.98% | – |
| O=C(CNc1cccc(F)c1)Nc1cccc(S(=O)(=O)N2CCCCC2)c1 | inactive: 14.5% | – |
| O=C(Cn1c(-c2ccccc2)noc1=O)Nc1ccc(S(=O)(=O)N2CCOCC2)cc1 | – | inconclusive [inhibitor, single point] |
| CCn1c(CCC(=O)N(C)CC(=O)Nc2cccc(F)c2)nc2cc(S(=O)(=O)N(C)C)ccc21 | – | inconclusive [inhibitor, single point] |
| COCCn1c(SC(C)C(=O)Nc2ncc(Cl)cc2Cl)nc2ccccc21 (centres undefined) | – | inconclusive [inhibitor, single point] |
| Cc1nn(Cc2ccccc2)c(C)c1C(=O)NCCCN1CCCC1=O | inactive: 9.89% | – |
| CN(C(=O)CSc1nc(-c2ccccc2)cs1)C1CCS(=O)(=O)C1 (centres undefined) | inactive: 17.6% | – |
| COC(=O)C1C(c2ccccc2)C(C(=O)OCc2ccco2)C1c1ccccc1 (centres undefined) | – | active: 10.4 µM |
| O=C(NCCn1cc(SCc2ccc(F)cc2)c2ccccc21)c1c(F)cccc1F | – | inconclusive [inhibitor, single point] |
| O=c1[nH]c(-c2ccccc2)c(-c2ccccc2)nc1[N+](=O)[O-] | inactive: 9.27% | – |
| CCCC[C@]12Cc3ccccc3C(O1)c1c(c3ccccc3oc1=O)O2 | inactive: -1.61% [at 5.75 µM] | – |
| COc1ccc(C(=O)N[C@H](C(=O)Nc2sccc2C(N)=O)C(C)C)cc1 | inactive: -22.8% | – |
| CN1CCC(N(C)S(=O)(=O)c2ccc(NC(=O)COc3ccc([N+](=O)[O-])cc3)cc2)CC1 | – | inconclusive [inhibitor, single point] |
| CCOc1ccc(NC(=O)C2Cc3ccccc3CN2S(=O)(=O)CC)cc1 (centres undefined) | – | inconclusive [inhibitor, partial curve] |
| CCCc1nnc(NC(=O)COC(=O)c2cc(C)nc3ccccc23)s1 | inactive: 4.91% | – |
| COc1ccc(C(=S)N2CCCC2)cc1C | inactive: 25.1% | – |
| O=C(Nc1ccc(N2CCOCC2)cc1)c1cc(-n2cnnc2)ccc1Cl | inactive: 9.99% | – |
| O=C(NCC1CCCO1)c1cccc(F)c1 (centres undefined) | – | inconclusive [inhibitor, full curve, poor fit] |
| CC(C)N1CCc2c(sc(NC(=O)Cc3ccccc3)c2C(N)=O)C1 | – | inconclusive [inhibitor, partial curve, poor fit] |
| FC(F)(F)c1nnc(-c2ccccc2)nc1Sc1ccc(Cl)cc1 | – | inconclusive [inhibitor, partial curve] |
